# Test results as given in the supplement of paper PMC8728848.
# The list shows a part of the results.
# How the values were obtained:
# Assay in all cases: glycan array binding signal (z-score within array); higher = stronger binding
# Settings in all cases: glycan notation: IUPAC condensed, linker removed
# [1] = biological target: Gal(a1-3)Gal
# Method in brief: (§1)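 From the Consortium for Functional Glycomics database, 3228 arrays were curated, keeping only those whose protein sequence was available. Binding is given as a within-array Z-score averaged across arrays sharing a protein sequence and across linkers. Negative Z-scores can be read as non-binding.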
# [2] = biological target: Gal(a1-3)Gal(b1-3)GlcNAc
# Method in brief: as §1
# [3] = biological target: Gal(a1-3)Gal(b1-4)Glc
# Method in brief: as §1
# [4] = biological target: Gal(a1-3)Gal(b1-4)GlcNAc
# Method in brief: as §1
# [5] = biological target: Gal(a1-3)Gal(b1-4)[Fuc(a1-3)]GlcNAc
# Method in brief: as §1
# [6] = biological target: Gal(a1-3)Gal(b1-4)[Fuc(a1-3)]GlcNAc(b1-2)Man(a1-3)[Gal(a1-3)Gal(b1-4)[Fuc(a1-3)]GlcNAc(b1-2)Man(a1-6)]Man(b1-4)GlcNAc(b1-4)GlcNAc
# Method in brief: as §1
# [7] = biological target: Gal(a1-3)GalNAc
# Method in brief: as §1
# [8] = biological target: Gal(a1-3)[Gal(a1-4)]Gal(b1-4)GlcNAc
# Method in brief: as §1
# [9] = biological target: Gal(a1-4)Gal(b1-4)Glc
# Method in brief: as §1
# [10] = biological target: Gal(a1-4)Gal(b1-4)GlcNAc
# Method in brief: as §1
# [11] = biological target: Gal(a1-4)Gal(b1-4)GlcNAc(b1-3)Gal(b1-4)Glc
# Method in brief: as §1
# [12] = biological target: Gal(a1-4)GlcNAc
# Method in brief: as §1
# [13] = biological target: Gal(a1-6)Glc
# Method in brief: as §1
# [14] = biological target: Gal(b1-2)Gal
# Method in brief: as §1
# [15] = biological target: Gal(b1-3)Gal
# Method in brief: as §1
# [16] = biological target: Gal(b1-3)Gal(b1-4)GlcNAc
# Method in brief: as §1
# [17] = biological target: Gal(b1-3)Gal(b1-4)GlcNAc(b1-2)Man(a1-3)[Gal(b1-3)Gal(b1-4)GlcNAc(b1-2)Man(a1-6)]Man(b1-4)GlcNAc(b1-4)GlcNAc
# Method in brief: as §1
# [18] = biological target: Gal(b1-3)GalNAc
# Method in brief: as §1
# [19] = biological target: Gal(b1-3)GalNAc(a1-3)[Fuc(a1-2)]Gal(b1-4)Glc
# Method in brief: as §1
# [20] = biological target: Gal(b1-3)GalNAc(a1-3)[Fuc(a1-2)]Gal(b1-4)GlcNAc
# Method in brief: as §1
# [21] = biological target: Gal(b1-3)GalNAc(b1-3)Gal(a1-4)Gal(b1-4)Glc
# Method in brief: as §1
# [22] = biological target: Gal(b1-3)GalNAc(b1-4)Gal(b1-4)Glc
# Method in brief: as §1
# [23] = biological target: Gal(b1-3)GalNAc(b1-4)[Neu5Ac(a2-3)]Gal(b1-4)Glc
# Method in brief: as §1
# [24] = biological target: Gal(b1-3)GlcNAc
# Method in brief: as §1
# [25] = biological target: Gal(b1-3)GlcNAc(b1-2)Man(a1-3)[Gal(b1-3)GlcNAc(b1-2)Man(a1-6)]Man(b1-4)GlcNAc(b1-4)GlcNAc
# Method in brief: as §1
# [26] = biological target: Gal(b1-3)GlcNAc(b1-2)Man(a1-3)[Gal(b1-3)GlcNAc(b1-2)Man(a1-6)]Man(b1-4)GlcNAc(b1-4)[Fuc(a1-6)]GlcNAc
# Method in brief: as §1
# [27] = biological target: Gal(b1-3)GlcNAc(b1-3)Gal(b1-3)GlcNAc
# Method in brief: as §1
# [28] = biological target: Gal(b1-3)GlcNAc(b1-3)Gal(b1-4)Glc
# Method in brief: as §1
# [29] = biological target: Gal(b1-3)GlcNAc(b1-3)Gal(b1-4)GlcNAc
# Method in brief: as §1
# [30] = biological target: Gal(b1-3)[Fuc(a1-4)]GlcNAc
# Method in brief: as §1
binder,measurement,setting,value
"Neuropilin-2 (Homo sapiens), O60462 (protein) MDMFPLTWVFLALYFSRHQVRGQPDPPCGGRLNSKDAGYITSPGYPQDYPSHQNCEWIVYAPEPNQKIVLNFNPHFEIEKHDCKYDFIEIRDGDSESADLLGKHCGNIAPPTIISSGSMLYIKFTSDYARQGAGFSLRYEIFKTGSEDCSKNFTSPNGTIESPGFPEKYPHNLDCTFTILAKPKMEIILQFLIFDLEHDPLQVGEGDCKYDWLDIWDGIPHVGPLIGKYCGTKTPSELRSSTGILSLTFHTDMAVAKDGFSARYYLVHQEPLENFQCNVPLGMESGRIANEQISASSTYSDGRWTPQQSRLHGDDNGWTPNLDSNKEYLQVDLRFLTMLTAIATQGAISRETQNGYYVKSYKLEVSTNGEDWMVYRHGKNHKVFQANNDATEVVLNKLHAPLLTRFVRIRPQTWHSGIALRLELFGCRVTDAPCSNMLGMLSGLIADSQISASSTQEYLWSPSAARLVSSRSGWFPRIPQAQPGEEWLQVDLGTPKTVKGVIIQGARGGDSITAVEARAFVRKFKVSYSLNGKDWEYIQDPRTQQPKLFEGNMHYDTPDIRRFDPIPAQYVRVYPERWSPAGIGMRLEVLGCDWTDSKPTVETLGPTVKSEETTTPYPTEEEATECGENCSFEDDKDLQLPSGFNCNFDFLEEPCGWMYDHAKWLRTTWASSSSPNDRTFPDDRNFLRLQSDSQREGQYARLISPPVHLPRSPVCMEFQYQATGGRGVALQVVREASQESKLLWVIREDQGGEWKHGRIILPSYDMEYQIVFEGVIGKGRSGEIAIDDIRISTDVPLENCMEPISAFAGENFKVDIPEIHEREGYEDEIDDEYEVDWSNSSSATSGSGAPSTDKEKSWLYTLDPILITIIAMSSLGVLLGATCAGLLLYCTCSYSGLSSRSCTTLENYNFELYDGLKHKVKMNHQKCCSEA",glycan array binding signal (z-score),[1],-0.176
same,glycan array binding signal (z-score),[2],-0.573
same,glycan array binding signal (z-score),[3],-0.465
same,glycan array binding signal (z-score),[4],0.603
same,glycan array binding signal (z-score),[5],0.01
same,glycan array binding signal (z-score),[6],1.45
same,glycan array binding signal (z-score),[7],-0.374
same,glycan array binding signal (z-score),[8],-0.84
same,glycan array binding signal (z-score),[9],-0.73
same,glycan array binding signal (z-score),[10],-0.366
same,glycan array binding signal (z-score),[11],-0.655
same,glycan array binding signal (z-score),[12],-0.376
same,glycan array binding signal (z-score),[13],-0.396
same,glycan array binding signal (z-score),[14],-0.222
same,glycan array binding signal (z-score),[15],0.352
same,glycan array binding signal (z-score),[16],0.073
same,glycan array binding signal (z-score),[17],0.191
same,glycan array binding signal (z-score),[18],-0.026
same,glycan array binding signal (z-score),[19],-0.835
same,glycan array binding signal (z-score),[20],-0.532
same,glycan array binding signal (z-score),[21],0.117
same,glycan array binding signal (z-score),[22],-0.961
same,glycan array binding signal (z-score),[23],-0.024
same,glycan array binding signal (z-score),[24],-0.116
same,glycan array binding signal (z-score),[25],-0.398
same,glycan array binding signal (z-score),[26],0.048
same,glycan array binding signal (z-score),[27],-0.591
same,glycan array binding signal (z-score),[28],-0.42
same,glycan array binding signal (z-score),[29],0.253
same,glycan array binding signal (z-score),[30],0.255
